Test results published in a compilation of properties of binary mixtures (doi:10.1021/acs.jced.5b00338).
The densities may have been worked out from excess volumes.

Test: xn = mol fraction of the nth substance listed
Details: 100 kPa

O=C1OCCO1 + CC[n+]1ccn(C)c1.O=S(=O)([N-]S(=O)(=O)C(F)(F)F)C(F)(F)F
mass density [kg/m3]
Details	293.15 K	313.15 K	333.15 K	353.15 K
x1 = 0.1896	–	–	–	1453.6
x1 = 0.3305	1508	1482.8	1466.9	–
x1 = 0.4395	1495.1	1474.2	1453.5	–
x1 = 0.5263	1485.8	1464.6	1443.8	1423.2
x1 = 0.6557	–	1448.9	–	1403.7
x1 = 0.7476	1447.6	1425.9	1404.4	1383.1
x1 = 0.8163	–	1407	–	1363.6
x1 = 0.8696	1409.6	1387.3	–	1343.4
x1 = 0.912	–	1369.3	1346.9	1324.7
x1 = 0.9467	1376.5	1354.1	1331.6	–
x1 = 0.9756	1360.7	1337.9	1315.3	1292.7
x1 = 1	–	1321.9	1299.1	1276.3

CC[n+]1ccn(C)c1.O=S(=O)([N-]S(=O)(=O)C(F)(F)F)C(F)(F)F + O=C1OCCO1
x2 = 0
Details	mass density [kg/m3]
293.15 K	1524
313.15 K	1503.8
333.15 K	1483.8
353.15 K	1464.2
